Results taken from US20220213201A1 (PHARMABCINE, published 2022).

Experiments:
[1] = target: T1, human TIE2-his (Sino Biological, 10700-H08H) (human, UniProt Q02763 23-745); test: ELISA, scFv phage on coated hTIE2-his, HRP anti-M13 detection
T1 construct: Bought protein; also called hTIE2-his; hTIE2; not shown: his tag

[2] = target: T2, mouse Tie2-his (Sino Biological, 51087-M08H) (mouse, UniProt Q02858 23-743); test: ELISA, scFv phage on mouse TIE2 antigen, HRP anti-M13 detection
T2 construct: Bought protein; also called mTIE2-his; mTie2-his; not shown: his tag
T2 sequence (looked up): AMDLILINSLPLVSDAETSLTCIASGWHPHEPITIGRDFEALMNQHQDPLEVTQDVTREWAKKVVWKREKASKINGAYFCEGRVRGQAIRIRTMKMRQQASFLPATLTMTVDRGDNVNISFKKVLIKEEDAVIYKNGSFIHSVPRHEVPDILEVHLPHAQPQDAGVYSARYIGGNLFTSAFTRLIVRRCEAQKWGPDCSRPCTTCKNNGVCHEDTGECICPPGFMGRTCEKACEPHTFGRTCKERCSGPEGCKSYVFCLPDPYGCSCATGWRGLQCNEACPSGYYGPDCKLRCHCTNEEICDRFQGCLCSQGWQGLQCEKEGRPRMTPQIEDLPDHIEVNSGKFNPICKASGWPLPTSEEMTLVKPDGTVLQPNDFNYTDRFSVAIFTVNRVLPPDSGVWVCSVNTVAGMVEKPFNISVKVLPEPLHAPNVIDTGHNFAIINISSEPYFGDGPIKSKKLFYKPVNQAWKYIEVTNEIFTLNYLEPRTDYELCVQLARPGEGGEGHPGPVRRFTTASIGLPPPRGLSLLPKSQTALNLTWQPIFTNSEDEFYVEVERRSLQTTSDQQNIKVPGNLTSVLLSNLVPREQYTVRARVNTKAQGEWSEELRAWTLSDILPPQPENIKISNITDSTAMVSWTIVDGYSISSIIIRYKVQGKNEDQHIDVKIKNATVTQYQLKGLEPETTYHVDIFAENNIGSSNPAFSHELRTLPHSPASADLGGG

B1: 1A6 monoclonal scFv phage (scFv)
chain: [not shown - about 100 residues]GVDSSMVTGFDHWGQGTLITVSSDIQMTQSPSTLSASVGDRVTITCRASQSISRWLAWYQQKPGKAPKFLIYEASTLESGVPSRFSGSGTGTEFTLTISSLQPDDFATYYCQQYEDYPLTFGQGTRLEIKR
Human ELISA [1]: 2.1 | Mouse ELISA [2]: 0.1
